# Results taken from the supplement of paper PMC3334620.
# Over roughly 33,000 sequences, “E-score (-0.5 to 0.5)” has its median near -0.035; the highest 2% begin near 0.34. The list shows a part of the results.
# Molecular target: T1, Mot3 (UniProt P54785)
# T1 sequence: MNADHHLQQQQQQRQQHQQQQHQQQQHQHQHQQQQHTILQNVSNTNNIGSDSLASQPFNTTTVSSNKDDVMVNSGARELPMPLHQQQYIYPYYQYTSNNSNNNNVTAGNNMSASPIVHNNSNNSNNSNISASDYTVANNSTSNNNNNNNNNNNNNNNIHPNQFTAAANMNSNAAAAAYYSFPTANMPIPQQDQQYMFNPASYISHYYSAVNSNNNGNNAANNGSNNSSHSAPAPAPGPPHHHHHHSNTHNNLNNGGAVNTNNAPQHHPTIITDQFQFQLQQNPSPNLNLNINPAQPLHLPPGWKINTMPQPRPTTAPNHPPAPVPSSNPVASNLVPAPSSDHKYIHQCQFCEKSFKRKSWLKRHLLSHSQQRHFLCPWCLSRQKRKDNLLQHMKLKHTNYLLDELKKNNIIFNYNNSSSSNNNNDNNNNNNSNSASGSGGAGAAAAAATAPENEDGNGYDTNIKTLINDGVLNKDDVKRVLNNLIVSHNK
# Experiment: PBM E-score (8-mer binding enrichment) (E-score (-0.5 to 0.5)); higher = stronger / more preferred TF binding; most listed sequences are background and not binding sites
# Conditions: protein concentration: 200 nM; construct: GST-full length
# Method in brief: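 Universal all-10-mer Agilent arrays, double-stranded by primer extension on fresh or once-stripped slides, were probed with about 100-200 nM GST-tagged yeast transcription factors made by PURExpress. Fluorescent anti-GST detected bound protein, and masliner normalised the scans. E-scores from the Universal PBM Analysis Suite were given to each ungapped eight-base word pooled with its reverse complement.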
row,Sequence,PBM E-score
1,ACCGTCAT,-0.0683
2,ACCACTAG,-0.0578
3,CCTCGACG,-0.0624
4,CGGCCCAG,-0.454
5,CCCGTCCG,-0.261
6,CCAATCCA,-0.104
7,ACTCCAGC,-0.108
8,AAGATGCT,0.00596
9,GCGACAGC,-0.234
10,AAGAATGA,0.101
11,CGTTTCGA,-0.0289
12,ACGTGGCC,-0.065
13,ATTAATTA,0.106
14,AGGAGTGA,-0.073
15,AAACTACC,0.0689
16,CAACCCGA,-0.0767
17,ACATTGTG,0.172
18,ACATGGCA,0.247
19,AGAGGGGG,-0.353
20,AAACACGG,0.243
21,ACGCGAAG,0.226
22,AAGTATAA,0.146
23,ACGGCACC,0.0514
24,GCCCACAA,-0.198
25,ACTCCTTA,-0.0478

row,Sequence,PBM E-score
1,CATTCCTA,-0.129
2,TCGAATCA,-0.0585
3,GTGCCGCA,-0.251
4,TCATTCCA,-0.229
5,AGCTCGAA,-0.151
6,TCGAGGCA,0.346
7,CAATGGCG,-0.303
8,AATACTGC,-0.195
9,CAGCCGGA,-0.0444
10,AGCCTAGA,-0.0156
11,TCCCTCCA,-0.143
12,ACGCCGCA,-0.105
13,CAGCGGTA,-0.0214
14,CATAGAAG,0.0831
15,AATTGACA,0.13
16,CGTAGGGC,-0.0174
17,AAAAGCGC,0.0608
18,GAAATGGC,-0.174
19,AACTAACC,0.204
20,ATTGTCAA,0.0347
21,ACCTAAGT,0.0986
22,CGAGAGCC,-0.186
23,CAGTTACC,0.00165
24,GATAAATC,-0.169
25,ACGGGACT,-0.273

row,Sequence,PBM E-score
1,AACAATAC,0.155
2,TCACCACA,-0.0873
3,ATTACAAA,0.347
4,CAGGTATC,0.056
5,CATTTTTC,0.0768
6,GTCTCATA,-0.0702
7,TGGAACAA,0.136
8,CTTCGCAC,0.0624
9,AGTTACGG,-0.241
10,AATGCGCA,-0.0819
11,ATGTATTG,0.303
12,AATTCCTG,0.0532
13,CAGACAGC,-0.191
14,GTGCGTAA,0.356
15,ACAAGAGC,0.0847
16,GGTTTGTA,0.221
17,ACTAATAC,0.151
18,CCATGTAC,0.327
19,CGGCCTTC,-0.235
20,AAATCGAG,-0.0527
21,ACCAGGGG,-0.19
22,GCCGTAAC,-0.146
23,CTGTTAAA,0.238
24,CGCTGCAC,-0.217
25,AAGTCTTC,-0.0674

row,Sequence,PBM E-score
1,AAATACGC,0.22
2,ATTCAGCG,-0.114
3,AGACCCTA,-0.0984
4,CAAGCCAC,-0.225
5,ATACGAAA,0.0852
6,CCGCCCGA,-0.225
7,AGATGTTC,-0.186
8,ACAATTCG,0.0496
9,GACCCACA,-0.102
10,AAATCCGC,-0.151
11,CGGCACAA,-0.0749
12,CGTGAGTA,-0.0014
13,AAGCTCGC,-0.0921
14,GACCGCCA,-0.181
15,AACTTGGG,0.0096
16,CGTACTTA,0.163
17,CACCACCC,-0.0332
18,CAACCGCA,-0.12
19,ATGATCTC,-0.0785
20,AGCCAATA,0.0294
21,CACTCTGG,-0.0358
22,CCATGGGG,-0.183
23,CACTCCCC,-0.133
24,GGAATCTA,-0.0104
25,CGAGGTGA,-0.113

row,Sequence,PBM E-score
1,GAGAAGGC,0.258
2,AAATAGTC,-0.199
3,CCGTCTTC,-0.315
4,AATTGCCT,0.472
5,ACGGAGAA,-0.116
6,AGACCCAT,-0.22
7,CTACCTGA,0.0134
8,CACCAAAG,0.0478
9,CTCCCTGA,-0.339
10,AAGCTAAC,-0.00069
11,ATATTGAG,0.0205
12,GCAGCAAC,-0.0944
13,TATGTCCA,0.0838
14,ATGAACCC,-0.0628
15,CACTTTGC,0.205
16,CGGGAGCA,-0.358
17,GGTGCAGA,-0.163
18,AACTTCCA,-0.119
19,AATCCATT,-0.0107
20,AGGCCGAT,-0.106
21,AGCGCTGG,-0.0215
22,CAACTAGG,0.153
23,GATGCAGC,-0.0695
24,ATACATCC,0.201
25,CAATTTCC,0.0755

row,Sequence,PBM E-score
1,ATCACTCC,-0.148
2,CACGCCCC,-0.0366
3,ATACGCAG,0.223
4,TGGTTTAA,0.167
5,ATCTCGTG,-0.127
6,ATTCCCCC,-0.341
7,CAATCTTC,-0.0132
8,GCCAACAC,0.154
9,GAGCTGGA,-0.205
10,GTGCAGTA,0.0488
11,ACGCTTCT,-0.0128
12,CCCGTACA,0.0344
13,CAAATATC,0.068
14,GTACCAGA,-0.0243
15,GATAGCTA,-0.0415
16,CGACTGAC,-0.228
17,ACACTAGT,-0.0367
18,AATGCCCC,-0.198
19,CGATTCGA,0.076
20,CCGCGCAA,-0.176
21,AACAATGT,0.228
22,AACCTGTG,0.357
23,AATTGGGA,-0.0908
24,TAACGCTA,0.0901
25,ATTTACTG,0.0286

row,Sequence,PBM E-score
1,ATGGCTTG,-0.016
2,ATCTCTGC,-0.138
3,AGATAGCG,-0.0829
4,AACGACCG,-0.163
5,AGTAAATA,0.191
6,CTGGGCCC,-0.241
7,CTACGAGC,-0.222
8,CCTAGTCG,-0.0943
9,ATATTTTC,0.0377
10,ACGCTGTC,0.00765
11,AAGGCCTC,-0.169
12,ACTCAAGA,-0.0682
13,CTGCACAC,0.129
14,CGACGCTC,-0.178
15,GTTTGCAA,0.195
16,AGGTTGTC,-0.0425
17,ATCTGAGC,0.0325
18,CTGAGATC,-0.132
19,AGAAGGAC,-0.198
20,ATTCGTTC,0.0248
21,GAAAACTC,0.0378
22,ACCAGGTG,-0.0408
